# Patent publication US20250296979A1 (VEGENICS, published 2025)
# T1: VEGF-C ligand (UniProt P49767 112-227, limits assumed)
# T1 sequence (looked up): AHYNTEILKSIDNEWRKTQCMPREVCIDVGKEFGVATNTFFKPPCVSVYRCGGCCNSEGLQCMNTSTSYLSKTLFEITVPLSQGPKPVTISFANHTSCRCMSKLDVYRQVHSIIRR
# T2: VEGF-D ligand (UniProt O43915 89-205, limits assumed)
# T2 sequence (looked up): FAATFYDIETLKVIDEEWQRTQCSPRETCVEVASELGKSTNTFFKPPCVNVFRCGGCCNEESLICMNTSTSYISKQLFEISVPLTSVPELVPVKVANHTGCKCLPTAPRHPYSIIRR
# Tests used:
# [1] = molecular target: T1, VEGF-C ligand; assay: ELISA, VEGF-C coated; against OPT-302 reference standard; stored at -20 C, 0.5 months
# Protocol: (§1) The assay plate was coated overnight with VEGF-C ligand at 0.1 μg/mL or VEGF-D ligand at 1.0 μg/mL. OPT-302 reference standard and test samples were diluted to a starting concentration of 1500 ng/ml and serial 2-fold dilutions are performed covering from 1.5 ng/mL to 1500 ng/mL. The plate was incubated for 60 min at 25° C. and then washed to remove unbound sample. The bound molecules were detected by adding HRP conjugated rabbit anti-human IgG to the assay plate and incubated for 60 min at 25° C. This was followed by the addition of TMB substrate and the assay plates were incubated in the dark for 10 minutes at room temperature. Colour development was stopped by adding 1M HCl stop solution, which was detected by absorbance at 450 nm. The intensity of the yellow colour was proportional to the amount of bound OPT-302 molecules, which in turn reflected the activity of the OPT-302 reference standard or test samples. 4-parameter curves were then generated by plotting the mean values against log10 of the serial 2-fold dilution concentrations. The reportable value was relative potency (%) of the test sample, i.e. the ratio of the EC50 of the reference standard to the EC50 of the test sample.
# [2] = molecular target: T2, VEGF-D ligand; assay: ELISA, VEGF-D coated; against OPT-302 reference standard; stored at -20 C, 0 months
# Protocol: as §1
# [3] = molecular target: T1, VEGF-C ligand; assay: ELISA, VEGF-C coated; against OPT-302 reference standard; stored at -20 C, 2 months
# Protocol: as §1
# [4] = molecular target: T2, VEGF-D ligand; assay: ELISA, VEGF-D coated; against OPT-302 reference standard; stored at -20 C, 2 months
# Protocol: as §1
# [5] = molecular target: T1, VEGF-C ligand; assay: ELISA, VEGF-C coated; against OPT-302 reference standard; stored at -20 C, 1 month
# Protocol: as §1
# [6] = molecular target: T2, VEGF-D ligand; assay: ELISA, VEGF-D coated; against OPT-302 reference standard; stored at -20 C, 1 month
# Protocol: as §1
# [7] = molecular target: T2, VEGF-D ligand; assay: ELISA, VEGF-D coated; against OPT-302 reference standard; stored at -20 C, 0.5 months
# Protocol: as §1
binder,measurement,setting,value
"OPT-302 (Fc fusion, N-glycosylation at 9-11, 142-144, 227-229, 275-277 and 387-389 (features of SEQ ID NO: 3 in the printed sequence listing), Tested as formulated drug product after storage; also called soluble VEGFR-3 trap molecule; Formulation 1 (41.5 mg/mL OPT-302 formulation)) YSMTPPTLNITEESHVIDTGDSLSISCRGQHPLEWAWPGAQEAPATGDKDSEDTGVVRDCEGTDARPYCKVLLLHEVHAQDTGSYVCYYKYIKARIEGTTAASSYVFVRDFEQPFINKPDTLLVNRKDAMWVPCLVSIPGLNVTLRSQSSVLWPDGQEVVWDDRRGMLVSTPLLHDALYLQCETTWGDQDFLSNPFLVHITGNELYDIQLLPRKSLELLVGEKLVLNCTVWAEFNSGVTFDWDYPGKQAERGKWVPERRSQQTHTELSSILTIHNVSQHDLGSYVCKANNGIQRFRESTEVIVHE[letters of human IgG1 Fc not shown]",relative potency (EC50 of reference standard / EC50 of test sample),[1],126%
same,relative potency (EC50 of reference standard / EC50 of test sample),[2],102%
same,relative potency (EC50 of reference standard / EC50 of test sample),[3],108%
same,relative potency (EC50 of reference standard / EC50 of test sample),[4],106%
same,relative potency (EC50 of reference standard / EC50 of test sample),[5],118%
same,relative potency (EC50 of reference standard / EC50 of test sample),[6],100%
same,relative potency (EC50 of reference standard / EC50 of test sample),[7],116%
